# Measurements reported in PubChem BioAssay (Tox21).
# Values joined by “and” are separate entries in the source; they are usually repeats but may differ in a detail not shown here. Identical values can stand only once. The inconclusive results got no clear call from the source; some entries with a clear call stand among them for comparison. For some assays here: A potency beside an inconclusive call is a rough fit, not a confirmed value. A structure can be active in one record and inactive in another. Active and inactive are the calls of the source. Unless noted, calls come from the whole dose curve; as a rule, active = well fitted curve in the direction sought with a large enough effect in the repeat runs; inconclusive = weak or mixed curves; inactive = no such curve, though single readings can be large; an effect the other way counts as inactive or inconclusive.
# Tests used:
# [1] = qHTS assay to identify small molecule antagonists of the estrogen receptor beta (ER-beta) signaling pathway - cell viability counter screen (AID 1259382); note: potency is the fitted concentration of half-maximal effect; nearly all actives have a fitted effect of over 55% in size
# In short: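 Readout: luminescence, CellTiter-Glo, same wells as bla assay. System: ER-beta-UAS-bla GripTite HEK293T, 2% charcoal-stripped FBS. Exposure: compounds plus 1nM 17-beta-estradiol, 16 hr, 37C.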
# [2] = molecular target: Thyrotropin receptor (Homo sapiens) (UniProt P16473); assay: qHTS assay to identify small molecule antagonists of the thyroid stimulating hormone receptor (TSHR) signaling pathway (AID 1259385; calls by dose curve; note: nearly all actives have a fitted effect of over 20% in size; note: potency is the fitted concentration of half-maximal effect); details: TSHR-HEK293 cAMP HTRF, TSH-stimulated antagonist mode; activity change, negative = inhibition: at 92.4 µM (top of the series) unless noted
# UniProt P16473, sequence (P16473 whole entry, looked up): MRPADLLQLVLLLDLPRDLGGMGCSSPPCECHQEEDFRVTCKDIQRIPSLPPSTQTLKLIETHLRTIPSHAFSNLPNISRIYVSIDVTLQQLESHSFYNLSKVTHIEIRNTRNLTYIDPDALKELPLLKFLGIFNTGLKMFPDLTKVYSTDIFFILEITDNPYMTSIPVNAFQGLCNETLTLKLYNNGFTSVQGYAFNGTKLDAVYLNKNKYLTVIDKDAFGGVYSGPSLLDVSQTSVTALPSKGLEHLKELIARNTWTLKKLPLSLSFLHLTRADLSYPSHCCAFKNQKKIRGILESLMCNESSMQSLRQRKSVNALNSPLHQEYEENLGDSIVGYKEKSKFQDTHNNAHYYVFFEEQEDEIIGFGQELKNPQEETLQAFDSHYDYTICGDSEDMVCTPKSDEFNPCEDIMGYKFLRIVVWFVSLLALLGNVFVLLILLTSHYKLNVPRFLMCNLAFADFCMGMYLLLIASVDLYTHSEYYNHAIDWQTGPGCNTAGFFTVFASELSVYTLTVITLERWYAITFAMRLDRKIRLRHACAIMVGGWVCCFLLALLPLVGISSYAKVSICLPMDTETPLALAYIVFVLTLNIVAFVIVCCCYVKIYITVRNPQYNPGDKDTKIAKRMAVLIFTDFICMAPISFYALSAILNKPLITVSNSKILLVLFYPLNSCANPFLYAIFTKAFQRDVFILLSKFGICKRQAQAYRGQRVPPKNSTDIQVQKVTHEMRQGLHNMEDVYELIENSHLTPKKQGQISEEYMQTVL
# In short: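 Antagonist mode: compound-treated TSHR-expressing HEK293 cells were stimulated with 1.5 ng/mL TSH (final) in presence of Ro20-1724 for 30 min at RT. HTRF cAMP detection after 1 h; each compound tested at 15 concentrations, triplicate.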
# [3] = qHTS assay to identify small molecule agonists of the estrogen receptor alpha (ER-alpha) signaling pathway in the presence of an antagonist - cell viability counter screen (AID 1259386);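 note: potency is the fitted concentration of half-maximal effect; cells exposed to compounds for 22 h at 37 °C before the viability read; nearly all actives have a fitted effect of over 30% in size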
# In short: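 The test measures whether compounds kill ER-alpha reporter cells (VM7Luc4E2) under antagonist co-treatment (ICI-182,780, 10.0nM). Fluorescence from CellTiter-Fluor is read after a 22hr exposure.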
# [4] = molecular target: Progesterone receptor (Homo sapiens) (UniProt P06401); assay: qHTS assay to identify small molecule agonists of the progesterone receptor (PR) signaling pathway (AID 1346784; calls by dose curve; note: nearly all actives have a fitted effect of over 30% in size; note: potency is the fitted concentration of half-maximal effect; for activation: % is set by controls: 0 for no effect and ±100 for the full control effect); details: PR-UAS-bla HEK293T, beta-lactamase FRET ratio, 16 h; activation: at 92.4 µM (top of the series) unless noted
# UniProt P06401, sequence (P06401 whole entry, looked up): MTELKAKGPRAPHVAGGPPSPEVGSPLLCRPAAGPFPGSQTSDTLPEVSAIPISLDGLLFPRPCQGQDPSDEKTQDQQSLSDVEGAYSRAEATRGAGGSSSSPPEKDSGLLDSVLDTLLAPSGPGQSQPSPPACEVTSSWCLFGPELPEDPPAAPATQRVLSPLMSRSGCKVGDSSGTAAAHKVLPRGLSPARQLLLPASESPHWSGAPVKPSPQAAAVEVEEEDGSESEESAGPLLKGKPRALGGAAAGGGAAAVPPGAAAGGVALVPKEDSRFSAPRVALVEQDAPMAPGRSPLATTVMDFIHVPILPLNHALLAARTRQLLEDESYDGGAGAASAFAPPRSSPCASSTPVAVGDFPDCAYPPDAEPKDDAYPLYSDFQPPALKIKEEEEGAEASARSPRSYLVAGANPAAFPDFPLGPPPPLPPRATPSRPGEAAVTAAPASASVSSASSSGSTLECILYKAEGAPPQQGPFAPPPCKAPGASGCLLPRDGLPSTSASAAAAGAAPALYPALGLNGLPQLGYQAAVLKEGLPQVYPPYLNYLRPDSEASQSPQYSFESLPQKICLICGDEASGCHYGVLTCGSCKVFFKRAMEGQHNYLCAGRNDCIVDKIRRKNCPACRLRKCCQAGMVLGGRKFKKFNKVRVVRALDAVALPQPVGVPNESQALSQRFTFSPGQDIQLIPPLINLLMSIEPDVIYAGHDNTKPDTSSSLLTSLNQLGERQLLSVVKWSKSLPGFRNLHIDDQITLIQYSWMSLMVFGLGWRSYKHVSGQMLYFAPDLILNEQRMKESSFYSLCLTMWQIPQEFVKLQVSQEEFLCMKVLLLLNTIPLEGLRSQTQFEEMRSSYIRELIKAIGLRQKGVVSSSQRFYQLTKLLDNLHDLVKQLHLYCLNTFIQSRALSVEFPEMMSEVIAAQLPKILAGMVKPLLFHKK
# In short: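 HEK 293T PR-UAS-bla reporter cells, 2% charcoal-stripped FBS; 6 hr settle at 37C/5% CO2, compound (DMSO) 16 hr, LiveBLAzer B/G FRET substrate 2 hr RT, fluorescence intensity read.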
# [5] = molecular target: Progesterone receptor (Homo sapiens) (UniProt P06401); assay: qHTS assay to identify small molecule antagonists of the progesterone receptor (PR) signaling pathway (AID 1346795; active = well fitted inhibition curve with a large enough effect in the signal ratio in the repeat runs, not every such curve was filed as active; inconclusive = weak or mixed curves; the % refers to the signal ratio; note: potency is the fitted concentration of half-maximal effect; for activity change, negative = inhibition: % is set by controls: 0 for no effect and ±100 for the full control effect); details: PR-UAS-bla HEK293T, beta-lactamase FRET ratio, 16 h; activity change, negative = inhibition: at 92.4 µM (top of the series) unless noted
# In short: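 Beta-lactamase reporter, HEK293T PR-UAS-bla line; 2% charcoal-stripped FBS; 6 hr pre-incubation, 37C/5% CO2. Compound + R5020 1 nM final, 16 hr. LiveBLAzer B/G FRET substrate, 2 hr RT; fluorescence intensity read.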
# [6] = qHTS assay to identify small molecule agonists of the TGF-beta/Smad signaling pathway - cell viability counter screen (AID 1346829); note: potency is the fitted concentration of half-maximal effect; nearly all actives have a fitted effect of over 45% in size
# In short: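 CellTiter-Glo luminescence readout; SBE-bla HEK 293T cells, overnight plating, compound 5 hr at 37 C/5% CO2, then bla substrate 2 hr RT, then CellTiter-Glo 30 min RT.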
# [7] = qHTS assay to identify small molecule agonists of the TGF-beta/Smad signaling pathway (AID 1346859; active = well fitted activation curve with a large enough effect in the signal ratio in the repeat runs, not every such curve was filed as active; inconclusive = weak or mixed curves; the % refers to the signal ratio; note: potency is the fitted concentration of half-maximal effect; for activation: % is set by controls: 0 for no effect and ±100 for the full control effect); details: SBE-bla HEK293T, TGF-beta/Smad beta-lactamase reporter, 5 h; activation: at 76.8 µM (top of the series)
# In short: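 Read-out: fluorescence at 460 and 530 nm (405 nm excitation) after a 2 hr room-temperature incubation with beta-lactamase FRET substrate. SBE-bla HEK 293T cells had been treated with test compounds for 5 hr at 37 C.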
# [8] = qHTS assay to identify small molecule antagonists of the TGF-beta/Smad signaling pathway (AID 1346924; active = well fitted inhibition curve with a large enough effect in the signal ratio in the repeat runs, not every such curve was filed as active; inconclusive = weak or mixed curves; the % refers to the signal ratio; note: potency is the fitted concentration of half-maximal effect); details: SBE-bla HEK293T, TGF-beta/Smad reporter, beta-lactamase ratio; activity, negative = inhibition: at 76.8 µM (top of the series) unless noted
# In short: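 Read-out was FRET-substrate fluorescence (405 nm excitation; 460 and 530 nm emission) after 2 h at room temperature. Before that, cells carrying a Smad-binding-element beta-lactamase reporter in HEK 293T had been stimulated 5 h at 37 C with TGF-beta1 (0.25 ng/mL addition solution) in the presence of test compound.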
# [9] = Caspase-3/7 induction in CHO-K1 cells by small molecules, qHTS cell viability counter screen (AID 1346979); note: potency is the fitted concentration of half-maximal effect; nearly all actives have a fitted effect of over 35% in size
# In short: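 CHO-K1 wt, 1,500 cells/well; 5hr pre-incubation 37C/5% CO2; compound pin transfer (DMSO); 16hr exposure; CellTiter-Fluor added, 1hr, fluorescence read.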
# [10] = Caspase-3/7 induction in CHO-K1 cells by small molecules, qHTS assay (AID 1346980); note: potency is the fitted concentration of half-maximal effect; nearly all actives have a fitted effect of over 15% in size
# In short: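 Luminescent Caspase-Glo 3/7 read (30min, room temperature) quantified apoptosis induction. Cells were wild-type CHO-K1, treated with compound for 17hr at 37 C and 5% CO2.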
# [11] = qHTS assay to identify small molecule antagonists of the progesterone receptor (PR) signaling pathway - cell viability counter screen (AID 1346798); note: potency is the fitted concentration of half-maximal effect; nearly all actives have a fitted effect of over 50% in size
# In short: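 Luminescence readout (CellTiter-Glo, 30 min, RT) of viability in PR-UAS-bla HEK293T cells exposed to compound and R5020 agonist for 16 hr at 37C, 5% CO2; run in the same wells as the beta-lactamase reporter read.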
# [12] = qHTS assay to identify small molecule agonists of the progesterone receptor (PR) signaling pathway - cell viability counter screen (AID 1346799; calls by dose curve; note: nearly all actives have a fitted effect of over 45% in size; note: potency is the fitted concentration of half-maximal effect)
# In short: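 HEK293T PR-UAS-bla, 3,000 cells/well, 2% charcoal-stripped FBS; 6 h settle, compound 16 h at 37C/5% CO2; LiveBLAzer 2 h RT, then CellTiter-Glo 30 min RT, luminescence read.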
# [13] = qHTS assay to identify small molecule antagonists of the TGF-beta/Smad signaling pathway - cell viability counter screen (AID 1346824); note: potency is the fitted concentration of half-maximal effect; nearly all actives have a fitted effect of over 50% in size
# In short: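 Cytotoxicity counter-screen run in the same wells as the beta-lactamase Smad reporter read: CellTiter-Glo luminescence after 30 min at room temperature. HEK 293T SBE-bla cells had 5 hr compound exposure at 37 C with TGF-beta1 (0.25 ng/mL stock).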
# [14] = Human pregnane X receptor (PXR) small molecule agonists, qHTS cell viability counter screen (AID 1346977); note: potency is the fitted concentration of half-maximal effect; nearly all actives have a fitted effect of over 50% in size
# In short: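 Fluorescence read-out (CellTiter-Fluor) of viability in PXR-Luc HepG2 cells, multiplexed with the luciferase agonist read. Compounds in DMSO added after 5hr plating; 24hr total exposure at 37C, 5% CO2.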
# [15] = qHTS assay to identify small molecule agonists or antagonists of the thyroid stimulating hormone receptor (TSHR) signaling pathway - wild type cell line counter screen (AID 1259384; calls by dose curve; note: % is set by controls: 0 for no effect and ±100 for the full control effect); details: HEK293 wild type, cAMP HTRF counter-screen; cAMP activity change: at 92.4 µM (top of the series), stronger effect = higher value unless noted
# In short: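 Counter screen in untransfected Hek293: compounds (15-point titration, triplicate) plus phosphodiesterase inhibitor Ro20-1724 added after 18 h plating; 30 min RT. Intracellular cAMP via competitive d2/cryptate immunoassay, 1 h incubation.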
# [16] = molecular target: Thyrotropin-releasing hormone receptor (Homo sapiens) (UniProt P34981); assay: qHTS assay to identify small molecule antagonists of the thyrotropin-releasing hormone receptor (TRHR) signaling pathway (AID 1346877; active = well fitted inhibition curve with a large enough effect in the repeat runs, not every such curve was filed as active; inconclusive = weak or mixed curves; note: potency is the fitted concentration of half-maximal effect)
# UniProt P34981, sequence (P34981 whole entry, looked up): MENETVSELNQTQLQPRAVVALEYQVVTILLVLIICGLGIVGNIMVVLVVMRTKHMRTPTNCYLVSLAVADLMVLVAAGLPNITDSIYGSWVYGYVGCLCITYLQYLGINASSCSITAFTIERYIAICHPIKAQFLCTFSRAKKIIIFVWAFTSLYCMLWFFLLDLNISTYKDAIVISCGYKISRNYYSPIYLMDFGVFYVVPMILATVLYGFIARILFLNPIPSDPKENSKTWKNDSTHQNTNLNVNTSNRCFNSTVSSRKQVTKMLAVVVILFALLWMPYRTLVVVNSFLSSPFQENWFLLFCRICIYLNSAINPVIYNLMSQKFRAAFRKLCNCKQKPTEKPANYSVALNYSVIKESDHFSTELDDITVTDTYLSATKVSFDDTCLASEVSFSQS
# In short: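 Overnight-plated (18 h, 37 °C) HEK293 cells expressing TRHR were dye-loaded 2 h, treated with compound, then stimulated with TRH at 1 nM final. Fluorescence intensity was captured every second for 3 min.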
# [17] = qHTS assay to identify small molecule agonists of the estrogen receptor beta (ER-beta) signaling pathway - cell viability counter screen (AID 1259380); note: potency is the fitted concentration of half-maximal effect; nearly all actives have a fitted effect of over 30% in size
# In short: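 Measured: luminescence from CellTiter-Glo after 30 min at room temperature, added to wells already read for the LiveBLAzer FRET reporter (2 hr substrate); ER-beta-UAS-bla HEK293T cells had 16 hr compound treatment at 37C, 5% CO2.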
# Tags give direction and shape of the fitted curve or compound fluorescence and quenching.
smiles,measurement,setting,value
O=C(Nc1ccc2[nH]ccc2c1)c1cc2cc(F)ccc2n1Cc1cccc(F)c1,Potency,[1],"inconclusive: 68.6 µM [cytotoxic, single point]"
same,Potency,[2],"inconclusive: 61.1 µM [falling, single point]"
same,Potency,[3],"inconclusive: 54.5 µM [cytotoxic, partial curve, poor fit]"
same,activation,[4],inconclusive: -5.64%
same,Potency,[5],active: 12.2 µM
same,Potency,[6],"inconclusive: 54.9 µM [cytotoxic, single point]"
same,Potency,[7],"inconclusive: 27.5 µM [falling, partial curve]"
same,Potency,[8],inconclusive: 49 µM [cytotoxic]
same,Potency,[9],active: 30.6 µM
same,Potency,[10],"inconclusive: 77 µM [activator, single point]"
FC(F)C(F)(F)OCC(Cn1cncn1)c1ccc(Cl)cc1Cl (stereo unspecified),Potency,[1],inconclusive: 68.2 µM [cytotoxic]
same,Potency,[2],"inconclusive: 76.5 µM [falling, single point]"
same,Potency,[3],"inconclusive: 76.5 µM [cytotoxic, partial curve, poor fit]"
same,Potency,[5],active: 19.2 µM
same,Potency,[11],"inconclusive: 76.5 µM [cytotoxic, single point]"
same,Potency,[12],"inconclusive: 76.5 µM [cytotoxic, single point]"
same,Potency,[13],"inconclusive: 21.7 µM [cytotoxic, partial curve]"
same,Potency,[14],inconclusive: 68.2 µM [cytotoxic]
CCCCCCCCCCCCCC[P+](CCCCCC)(CCCCCC)CCCCCC,Potency,[1],active: 13.7 µM and active: 27.5 µM
same,Potency,[2],active: 68.9 µM and active: 69.1 µM
same,Potency,[4],"inconclusive: 27.4 µM [cytotoxic, full curve] and inconclusive: 30.9 µM [cytotoxic, partial curve]"
same,Potency,[14],active: 3.87 µM and active: 6.16 µM and active: 1.72 µM
same,Potency,[9],active: 4.35 µM and active: 6.16 µM and active: 2.73 µM
same,Potency,[10],active: 13.8 µM
O=S1OCC2C(CO1)C1(Cl)C(Cl)=C(Cl)C2(Cl)C1(Cl)Cl (stereo unspecified),Potency,[1],"inconclusive: 68.7 µM [cytotoxic, single point] and inconclusive: 68.5 µM [cytotoxic, single point]"
same,Potency,[2],"inconclusive: 61.1 µM [falling, partial curve]"
same,Potency,[3],inconclusive: 77 µM [cytotoxic]
same,Potency,[4],"inconclusive: 48.6 µM [cytotoxic, partial curve, poor fit] and inconclusive: 68.5 µM [cytotoxic, single point]"
same,Potency,[11],inconclusive: 68.7 µM [cytotoxic] and active: 61.1 µM
same,Potency,[12],active: 68.7 µM and inconclusive: 68.5 µM [cytotoxic]
same,Potency,[13],"inconclusive: 30.9 µM [cytotoxic, partial curve, poor fit]"
same,Potency,[6],"inconclusive: 0.49 µM [cytotoxic, single point]"
same,Potency,[7],"inconclusive: 55 µM [rising, single point]"
same,Potency,[8],inconclusive: 51.9 µM and inconclusive: 54.9 µM
same,Potency,[14],"inconclusive: 68.7 µM [cytotoxic, single point] and inconclusive: 68.5 µM [cytotoxic, single point]"
same,Potency,[10],"inconclusive: 76.9 µM [activator, single point]"
O=C1C(Cl)=C(Cl)C(=O)C(Cl)=C1Cl,Potency,[1],"inconclusive: 54.5 µM [cytotoxic, partial curve]"
same,cAMP activity change,[15],inconclusive: -4.57% and inconclusive: 4.7%
same,Potency,[3],"inconclusive: 60.9 µM [cytotoxic, partial curve] and inconclusive: 27.3 µM [cytotoxic, partial curve]"
same,Potency,[4],inactive
same,"activity change, negative = inhibition",[5],inconclusive: 1.2%
same,Potency,[13],"inconclusive: 38.8 µM [cytotoxic, partial curve] and inconclusive: 54.9 µM [cytotoxic, single point]"
same,Potency,[6],"inconclusive: 30.8 µM [cytotoxic, partial curve, poor fit]"
same,Potency,[7],inconclusive: 48.8 µM [fluorescent]
same,activation,[7],inconclusive: 14.4%
same,Potency,[16],"inconclusive: 33.7 µM [inhibitor, single point]"
same,Potency,[14],"inconclusive: 44.7 µM [cytotoxic, partial curve] and inconclusive: 61.1 µM [cytotoxic]"
same,Potency,[9],active: 24.2 µM and active: 24.3 µM
O=C(N[C@H]1CN2CCC1CC2)c1cc2ccoc2cn1,Potency,[17],"inconclusive: 43.3 µM [rising, partial curve, poor fit]"
same,Potency,[12],inactive
Nc1ccccc1C(=O)OCCc1ccccc1,Potency,[1],"inconclusive: 34.5 µM [cytotoxic, partial curve] and inconclusive: 9.69 µM [cytotoxic, full curve, poor fit]"
same,"activity change, negative = inhibition",[2],inconclusive: -5.51%
same,Potency,[4],inactive
same,Potency,[5],inconclusive: 19.4 µM and inconclusive: 27.3 µM
same,Potency,[12],"inconclusive: 6.89 µM [cytotoxic, single point]"
same,Potency,[9],"inconclusive: 77.3 µM [cytotoxic, single point]"
